The whole screen tested about 48,000 compounds, of which about 450 (0.94%) were called active. Roughly 19% stayed inconclusive and do not appear here. The call rests on the fitted dose curve; in most records, active means well fitted inhibition curve with a large enough effect; inconclusive means small, poorly fitted or top-dose-only effect; inactive means no such curve, though single readings can be large or run the other way. The list shows a part of the results.

This experiment is described as follows: Primary qHTS for Identification of Small Molecule Inhibitors of Huntingtin Promoter Activity. Further: nearly all actives have a fitted effect of over 50% in size. The conditions noted are these: HEK293 HTT promoter firefly luciferase reporter (activity 0% = vehicle and -100% = no light), 24 h; series mostly up to 57.5 µM; activity change, negative = inhibition: at the top concentration. The method, boiled down:
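HEK293 luciferase promoter-reporter cells (2,500/well) plated 24 h, then compounds added at up to 57.5 uM final for 24 h at 37 °C. Firefly luminescence by Dual-Glo, normalized to vehicle (0%) and zero RLU (-100%).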
Consider `CCc1ccc(Oc2nc3c(C)cccn3c(=O)c2/C=C(\C#N)c2nc3ccccc3[nH]2)cc1`, for which the “activity change, negative = inhibition” value was inactive: -10.8%.

As to `COc1cc(-c2noc(CSc3nc(-c4ccccc4)cc(=O)[nH]3)n2)cc(OC)c1OC`, the “activity change, negative = inhibition” value was inactive: 7.19%.

For the compound `Cc1ccc(-n2nc(C)c3c(C)cc(=O)n(CC(=O)Nc4ccc(Br)cc4F)c32)cc1`, the “activity change, negative = inhibition” value is inactive: 2.82%.

Consider `Cc1cc(=O)n2[nH]c(NCc3ccc(F)cc3)nc2n1`, for which the “activity change, negative = inhibition” value was inactive: -28.9%.

As for `O=C(CCCn1c(=O)c2cccn2c2ccc(F)cc21)NCCc1ccccc1`, the “activity change, negative = inhibition” value was inactive: -2.18%.

As to `Cc1ccc(Cl)cc1NC(=O)Nc1c(C)n(C)n(-c2ccccc2)c1=O`, the “activity change, negative = inhibition” value was inactive: -13.7%.

With `CCOC(=O)CSc1nc2ccc(NC(=O)c3ccc(F)cc3)cc2s1`, the “activity change, negative = inhibition” value was inactive: 0.828%.

`COc1ccc(NC(=O)Cn2cc(S(=O)(=O)c3ccc(C)cc3)c(=O)c3ccccc32)cc1OC`: the “activity change, negative = inhibition” value is inactive: -11%.

On to `Cc1ccc(CSCC(=O)NCc2ccc(F)cc2)cc1`, for which the “activity change, negative = inhibition” value is inactive: -20.3%.

Take `COc1ccc(-c2noc(-c3ccc(NCc4ccco4)c([N+](=O)[O-])c3)n2)cc1`: the “activity change, negative = inhibition” value is inactive: -7.93%.

As for `CCc1nnc(SCC(=O)N(C)c2ccccc2)c2cc3sccc3n12`, the “activity change, negative = inhibition” value is inactive: 1.9%.

For `CC1=C(C(=O)Nc2cccnc2)C(c2cccc(O)c2)n2nc(SCc3ccccc3)nc2N1` (stereo not given), the “activity change, negative = inhibition” value is inactive: -13.2%.

With `CCCn1c(=O)n(-c2cc(Cl)c(OC)cc2OC)c(=O)c2c3c(sc21)CN(C(C)=O)CC3`, the “activity change, negative = inhibition” value was inactive: 2.62%.

With `Cc1ccc([C@H]2Nc3ccc(S(=O)(=O)Nc4cccc(Cl)c4C)cc3[C@H]3C=CC[C@H]32)cc1`, the “activity change, negative = inhibition” value was inactive: -16.9%.

Turning to `CCn1cc(CCC(=O)NCc2ccc(F)cc2)c2ccccc21`, the “activity change, negative = inhibition” value was inactive: -10.9%.

For the compound `Cc1ccc(Nc2nnc(-c3ccc(C)c(S(=O)(=O)N4CCN(C)CC4)c3)c3ccccc23)c(C)c1`, the activity change, negative = inhibition was inactive: 8.19% [at 11.5 µM].

`CCOc1ccccc1CNC(=O)C1CCN(C2=NS(=O)(=O)C(c3ccc(C)c(C)c3)=C2C)CC1`: the “activity change, negative = inhibition” value was inactive: -22.1%.

In the case of `CCCN(C(=O)c1nn(-c2ccc(OC)c(Cl)c2)c(=O)c2c1c1ccccc1n2C)c1ccccc1F`, the “activity change, negative = inhibition” value is inactive: -6.33%.

`CCOc1ccc(C(=O)NCCc2csc(-c3ccc(C(F)(F)F)cc3)n2)cc1OCC`: the “activity change, negative = inhibition” value was inactive: 0.857%.

Take `COc1ccc(C(=O)Nc2cc(C(C)C)c(O)c(S(=O)(=O)c3ccc(OC)cc3)c2C)cc1`: the “activity change, negative = inhibition” value was inactive: 30.4%.

On to `COc1cccc(NC(=O)c2sc3nc(C)c(C(=O)Nc4ccc(C)cc4C)c(-c4sccc4C)c3c2N)c1`, for which the “activity change, negative = inhibition” value was inactive: 1.68%.

For the compound `O=c1c2oc3ccccc3c2n(Cc2cccc(F)c2)c(=O)n1Cc1ccco1`, the “activity change, negative = inhibition” value was inactive: -11%.

On to `CC(C)c1ccc2oc(-c3cc(NC(=O)c4cccs4)ccc3Cl)nc2c1`, for which the “activity change, negative = inhibition” value was inactive: -18.1%.

Consider `Cc1ccc(Cl)cc1N1CCN(C(=O)C2CCCN(S(=O)(=O)c3ccc(Br)s3)C2)CC1` (stereo not given), for which the “activity change, negative = inhibition” value was inactive: -29.9%.

As to `COc1ccccc1NC(=O)CCn1cnc2ccccc2c1=O`, the “activity change, negative = inhibition” value was inactive: 13%.

As to `Cc1ccc2nc(-c3ccc(Cl)c(NC(=O)c4cccnc4)c3)oc2c1`, the “activity change, negative = inhibition” value is inactive: 2.2%.

With `CC(=O)N1CCCc2cc(S(=O)(=O)N3CCCCC3)ccc21`, the “activity change, negative = inhibition” value was inactive: -6.37%.

For `Oc1ccc(Cl)c2cccnc12`, the “activity change, negative = inhibition” value is inactive: -8.75%.

For `CN(C(=O)c1cc2c(=O)oc3ccccc3c2s1)c1ccc(F)cc1`, the “activity change, negative = inhibition” value was inactive: -6.53%.

Consider `CCCCn1c2ccc(F)cc2c2nnc(SCCN3CCCCC3)nc21`, for which the “activity change, negative = inhibition” value is inactive: -4.57%.

`Cc1ccc(OCC(=O)NCC(=O)OCc2cc(=O)n3nc(C)sc3n2)cc1`: the “activity change, negative = inhibition” value is inactive: 0.71%.

Take `CCOC(=O)C1CCN(S(=O)(=O)c2cc(-c3onc(C)c3C)ccc2OC)CC1`: the “activity change, negative = inhibition” value is inactive: -28.3%.

As to `COc1ccc(CCNC(=O)CSc2ncc3c(n2)-c2cc(Cl)ccc2N(Cc2ccccc2)S3(=O)=O)cc1OC`, the “activity change, negative = inhibition” value was inactive: -18.4%.

Regarding `Cc1ccc(CNC(=O)c2nc(SCc3ccc(C)cc3)ncc2Cl)cc1`, the “activity change, negative = inhibition” value was inactive: -7.55%.

For the compound `COc1ccc(CNC(=O)c2ccc3c(c2)N(Cc2cccc(Cl)c2)C(=O)c2ccccc2S3)c(OC)c1`, the “activity change, negative = inhibition” value was inactive: -20.1%.

For `COCCCNC(=O)CCn1c(=O)c2ccccc2n(CC(=O)Nc2c(C)cc(C)cc2C)c1=O`, the “activity change, negative = inhibition” value is inactive: -2.72%.

With `Cc1ccc(-n2c(=O)c3cccnc3n2CC(=O)Nc2cccc(C)c2C)cc1`, the “activity change, negative = inhibition” value is inactive: -5.21%.

In the case of `Cc1cccn2c(Nc3ccccc3)c(-c3ccc(N4CCOCC4)cc3)nc12`, the “activity change, negative = inhibition” value was inactive: 25.7%.

As to `CC(C)c1ccc(OC(=O)c2cc(-c3ccc4c(c3)OCCO4)on2)cc1`, the “activity change, negative = inhibition” value is inactive: -12.7%.

As for `CCC(=O)c1ccc(O)cc1`, the “activity change, negative = inhibition” value was inactive: -0.438%.

For the compound `CCOc1ccc(C(=O)Nc2nnc(SCc3cc(=O)c4cc(C)ccc4[nH]3)s2)cc1`, the “activity change, negative = inhibition” value is inactive: 16.3%.

In the case of `COc1cccc2sc(N(Cc3cccnc3)C(=O)COc3ccccc3)nc12`, the “activity change, negative = inhibition” value was inactive: -26.7%.

Take `Cc1nn(-c2ccccc2)c(OC(=O)c2ccccc2F)c1S(=O)(=O)c1ccccc1`: the “activity change, negative = inhibition” value is inactive: 0.18%.

Consider `COc1cccc(N2CCN(C(=O)c3cccc(NC(=O)c4nsc5ccccc45)c3)CC2)c1`, for which the “activity change, negative = inhibition” value is inactive: -38.8%.

Turning to `Cc1ccc(C)c(NC(=O)CSc2nc(=O)n(CCN(C)C)c3c2CCC3)c1`, the “activity change, negative = inhibition” value was inactive: -2.07%.

In the case of `COc1cc(CN(C(=O)c2ccccc2[N+](=O)[O-])c2ccccn2)cc(OC)c1OC`, the “activity change, negative = inhibition” value is inactive: -13.9%.

Consider `Cc1sc2c(c1C)c(=O)n(CCc1ccccc1)c(=O)n2Cc1ccccc1Cl`, for which the “activity change, negative = inhibition” value is inactive: -4.01%.

On to `CCn1c(=O)c2cc(C(=O)N3CCN(c4cccc(Cl)c4)CC3)sc2c2ccccc21`, for which the “activity change, negative = inhibition” value is inactive: -4.89%.

Take `CC1CCN(S(=O)(=O)c2ccc3c(c2)N(CC(=O)NCCCN2CCCCC2C)C(=O)CS3)CC1` (stereo not given): the “activity change, negative = inhibition” value is inactive: -13%.

With `CCN(CC)S(=O)(=O)c1ccc2c(c1)nc(CN(C)C(=O)c1cccc(Cl)c1)n2C`, the “activity change, negative = inhibition” value was inactive: -25.8%.

On to `COc1ccc(CCNC(=O)C2=C(C)C(=O)OC23CCCCC3)c(OC)c1OC`, for which the “activity change, negative = inhibition” value was inactive: -16.5%.

For the compound `COc1ccc(OC)c(CNC(=O)C2CCN(S(=O)(=O)c3cn(C)cn3)CC2)c1`, the “activity change, negative = inhibition” value is inactive: -3.89%.

With `COc1cc(Cl)c(C)cc1NC(=O)c1cc(CN2CCOCC2)on1`, the “activity change, negative = inhibition” value is inactive: 1.68%.

For the compound `CCc1ccc(NC(=O)CCS(=O)(=O)c2ccc3c(c2)CCN3C(C)=O)cc1`, the “activity change, negative = inhibition” value was inactive: -26.3%.

Regarding `Cc1cc(NC(=O)c2ccc3c(c2)N(Cc2cccc(Cl)c2)C(=O)c2ccccc2S3=O)ccc1Br` (stereo not given), the “activity change, negative = inhibition” value was inactive: -10%.

For the compound `CCc1ccccc1NC(=O)Nc1cc(C(=O)NCc2ccc(C(C)C)cc2)ccc1N1CCCC1`, the “activity change, negative = inhibition” value is inactive: -7.08%.

For the compound `Cc1ccc(S(=O)(=O)c2cn(Cc3ccccc3F)c3cc4c(cc3c2=O)OCO4)cc1`, the “activity change, negative = inhibition” value is inactive: -16%.

On to `CC1CCCN(Cc2c(O)ccc3c(=O)c(Oc4ccccc4Cl)c(C(F)(F)F)oc23)C1` (stereo not given), for which the “activity change, negative = inhibition” value was inactive: -21.1%.

Take `Cc1ccc(SCC(=O)Nc2ccc3oc(-c4ccc(F)cc4)nc3c2)cc1`: the “activity change, negative = inhibition” value was inactive: 70.2%.

In the case of `COc1ccc(C(=O)NCc2nnc(SCC(=O)Nc3ccc(C)cc3)n2-c2ccccc2)cc1`, the “activity change, negative = inhibition” value was inactive: -1.84%.

These data come from PubChem BioAssay AID1508623 (National Center for Advancing Translational Sciences (NCATS), 2021).
